Our source for the result_ITMP values is paper PMC13083723 (Patterns, 2026).

Molecules are shown by their SMILES. Out of some 5,400 compounds screened, about 190 (3.5%) showed an effect of 50% or more. The list shows a part of the results.

The test system of this assay is Vero-E6. Nature of the assay: primary screen, phospholipidosis by LipidTOX staining; higher = more effect of the substance. Conditions: 10 µM. The gist of the method:
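Drug-induced phospholipidosis detected with HCS LipidTOX Red reagent in Vero-E6 cells. Compounds tested at 10 μM, with amiodarone (10 μM) as positive control and DMSO (0.1 v/v %) as vehicle.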
Turning to `CC(C)(C)c1cc(/C=C(\C#N)C(N)=S)cc(C(C)(C)C)c1O`, the result_ITMP was -2.37%.

For the compound `Cc1cn2c(N)c(Cl)cc(C(=O)NCC3CCN(CC(C)C)CC3)c2n1`, the result_ITMP is given as -1.6%. With `CCC(=O)NCC[C@@H]1CCc2ccc3c(c21)CCO3`, the result_ITMP was found to be 1.73%. As for `COC1=CC(=O)C[C@@H](C)[C@]12Oc1c(Cl)c(OC)cc(OC)c1C2=O`, the result_ITMP was 3.46%. `C[C@H](NC(=O)/C(C#N)=C/c1ccc(O)c(O)c1)c1ccccc1`: the result_ITMP is given as -1.75%. Under `O=S(=O)(NCCNC/C=C/c1ccc(Br)cc1)c1cccc2cnccc12` stands 60.8%; under `COc1ccc(-c2coc3cc(O)cc(O)c3c2=O)cc1`, -5.25%; under `O=C(O)/C=C/c1ccc(-c2ccc(O)c(C34CC5CC(CC(C5)C3)C4)c2)cc1`, 0.68%.

Take `CC(C)CCNc1ncccc1C(=O)N1CCN(Cc2ccccc2)CC1`: the result_ITMP is recorded as 1.41%. As to `COc1ccccc1N1CCN(CCN2C(=O)CC3(CCCC3)CC2=O)CC1`, the result_ITMP is listed as 5.3%. As for `CCN(CC)CCCCC1CCN(CC(=O)N2c3ccccc3C(=O)Nc3cccnc32)CC1`, the result_ITMP is -2.95%. In the case of `OCC(O)CN1CCN(c2ccccc2)CC1` (centres unmarked), the result_ITMP is recorded as -1.7%. Consider `O=S(=O)([O-])CCS`, for which the result_ITMP is recorded as -2.99%.

As to `COc1cccc(OCCCN)c1-c1cc(Nc2cnc(C#N)cn2)n[nH]1`, the result_ITMP was 5.84%.

For the compound `Fc1ccc(-n2cc(CCCCN3CCC4(CC3)OCc3ccccc34)c3ccccc32)cc1`, the result_ITMP is listed as 26.9%. On to `c1ccc2c(c1)OCC(C1=NCCN1)O2` (centres unmarked), for which the result_ITMP was determined as 6.24%.

Turning to `CN(C)[C@@H](CCOc1cccc2ccccc12)c1ccccc1`, the result_ITMP is 43.4%. `CN(C)CCCC1(c2ccc(F)cc2)OCc2cc(C#N)ccc21` (centres unmarked): the result_ITMP was found to be 19.3%. `O=S(=O)(OC[C@H]1O[C@@](COS(=O)(=O)[O][Al]([OH])[OH])(O[C@H]2O[C@H](COS(=O)(=O)[O][Al]([OH])[OH])[C@@H](OS(=O)(=O)[O][Al]([OH])[OH])[C@H](OS(=O)(=O)[O][Al]([OH])[OH])[C@H]2OS(=O)(=O)[O][Al]([OH])[OH])[C@@H](OS(=O)(=O)[O][Al]([OH])[OH])[C@@H]1OS(=O)(=O)[O][Al]([OH])[OH])[O][Al]([OH])[OH]`: the result_ITMP is given as 6.9%. To `c1ccc(C2CNCc3ccccc32)cc1` (centres unmarked) belongs 11.1%.

Regarding `NC(C(=O)O)c1cc(O)ccc1Cl` (centres unmarked), the result_ITMP is listed as -1.5%. As to `COC[C@@H](c1ccc(C(F)(F)F)cc1)N1CCN(C2(C)CCN(C(=O)c3c(C)ncnc3C)CC2)C[C@@H]1C`, the result_ITMP is 2.88%.

In the case of `O=C(O)CNC(=O)C(CS)Cc1ccccc1` (centres unmarked), the result_ITMP is recorded as -1.4%. `CCCCCCOc1cc2c(cc1N(C)c1ncc(C(=O)O)cn1)C(C)(C)CCC2(C)C`: the result_ITMP is -1.31%. As for `O=C(CCCc1ccc(-c2ccccc2F)cc1)Nc1ccc(O)cc1`, the result_ITMP was found to be 1.16%.

On to `CN[C@@H]1CCc2[nH]c3ccc(C(N)=O)cc3c2C1`, for which the result_ITMP is -6.83%.

In the case of `COc1ccc(CC2NCCc3cc(OC)c(OC)cc32)cc1OC` (centres unmarked), the result_ITMP is -1.72%.

Regarding `CC(C)c1noc(N2CCC(COc3ccc(-c4ccc(S(C)(=O)=O)cc4)nc3)CC2)n1`, the result_ITMP is listed as -4.06%. `O=C(NC1CCNCC1)c1n[nH]cc1NC(=O)c1c(Cl)cccc1Cl`: the result_ITMP is 18.1%. Consider `O=C(Nc1ccc(F)cc1)N1CCc2ccccc2C1c1ccc(C(F)(F)F)cc1` (centres unmarked), for which the result_ITMP is -0.7%.

Regarding `Cc1nccn1CCC(C(N)=O)(c1ccccc1)c1ccccc1`, the result_ITMP was -2.02%. Regarding `CC[C@H](Nc1ncnc2[nH]cnc12)c1nc2cccc(F)c2c(=O)n1-c1ccccc1`, the result_ITMP was 0%. To `CNCCCOc1cc(F)c(-c2c(Cl)nc3ncnn3c2N[C@@H](C)C(F)(F)F)c(F)c1` belongs 37.5%. Regarding `O=C(O)c1ccc(S(=O)(=O)N(Cc2ccc(OC(F)(F)F)cc2)c2ncc(C(F)(F)F)cc2Cl)cc1`, the result_ITMP is on record as -2.16%. Under `COc1ccc(NS(=O)(=O)c2ccc(N=Nc3ccc(O)c(C(=O)O)c3)cc2)nn1` stands -1.47%; under `Cc1ccc2c(c1)Cc1c(C(=O)NC3CCCCC3)nn(-c3ccc(Cl)cc3Cl)c1-2`, -2.64%. `CCN1CCN(c2cc(-c3ccc(F)cc3)c3c(n2)CCCCCC3)CC1`: the result_ITMP came out at 0.59%. As to `Cc1cc(CN)cc(C)c1NC(=O)c1ccc(-c2cc(Cl)ccc2Cl)o1`, the result_ITMP came out at 36.2%. Take `C[C@@H]1CN(Cc2ccc(F)cc2)[C@@H](C)CN1C(=O)c1cc2c(C(=O)C(=O)N(C)C)cn(C)c2cc1Cl`: the result_ITMP was -5.07%. Regarding `O=c1cc[nH]c2cc(Cl)ccc12`, the result_ITMP is on record as -1.07%. With `CC[C@@H]1C(=O)N(C)c2cnc(Nc3ccc(C(=O)NC4CCN(C)CC4)cc3OC)nc2N1C1CCCC1`, the result_ITMP is 66.8%. On to `CC[C@@H]1C[C@H](N(Cc2cc(C(F)(F)F)cc(C(F)(F)F)c2)C(C)=O)c2cc(C(F)(F)F)ccc2N1C(=O)OC(C)C`, for which the result_ITMP is given as -4.08%. On to `O=C1c2ccccc2C(Cc2ccncc2)(Cc2ccncc2)c2ccccc21`, for which the result_ITMP is given as -1.11%. For `CC[N+]1(C)CCCC(OC(=O)C(O)(c2ccccc2)c2ccccc2)C1` (centres unmarked), the result_ITMP is on record as -13.2%. With `CCS(=O)(=O)N1CCC([C@@H](C)n2c(C)c(C(=O)NCc3c(OC)cc(C)[nH]c3=O)c3ccccc32)CC1`, the result_ITMP worked out at 0.19%. To `Fc1ccc(CNc2ncnc3ccc(F)cc23)cc1` belongs 2.6%. Take `CCn1c(=O)n(C2=C(CO)CN(CC3CCCCCCC3)CC2)c2ccccc21`: the result_ITMP came out at 3.61%. To `CC(C)(C)NCC(O)c1ccc(O)c(CO)c1` (centres unmarked) belongs -2.76%; to `Cc1sc2c(c1C)C(c1ccc(Cl)cc1)=N[C@@H](CC(=O)Nc1ccc(OCCOCCOCCOCCNc3cccc4c3C(=O)N(C3CCC(=O)NC3=O)C4=O)cc1)c1nnc(C)n1-2` (some centres unmarked), 1.89%; to `c1ccc([C@@H]2C[C@H]2NC2CCNCC2)cc1`, 27.9%. For the compound `Fc1ccc(-c2cncc(CN3CCN(c4cccc5c4OCCO5)CC3)c2)cc1`, the result_ITMP was 1.81%. On to `Cc1nnc2n1-c1sc(CCC(=O)N3CCOCC3)cc1C(c1ccccc1Cl)=NC2`, for which the result_ITMP was -6.23%.

For `O=C(O)c1ccccc1Nc1cccc(OCc2ccc3ccccc3n2)c1`, the result_ITMP was -1.5%. As to `CC(=O)NCCc1c(Cc2ccccc2)[nH]c2ccccc12`, the result_ITMP is on record as 0.24%. Regarding `CN(C)CC/C=C1/c2ccccc2COc2ccccc21`, the result_ITMP was determined as 41.1%. For the compound `CC(C)N[C@@H]1CCn2c(=O)[nH]c3cccc(c32)[C@H]1O`, the result_ITMP was found to be 3.01%.
